Measurements taken from the supplement of paper PMC11417369.
± gives the standard deviation of the averaged measurements. This is one part of the list.

system: PfAP2-I AP2 domain 3 (GST-tagged); assay: gcPBM binding intensity (ln(normalized median fluorescence intensity)); higher = stronger DNA binding
Method in brief: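 Using an Agilent 4 × 180k array, primer-extended double-stranded 36-bp intergenic genomic probes and negative controls were exposed for 1 h to GST-fused P. falciparum DNA-binding domains expressed in E. coli. Binding was carried out in 1× PBS with 1% milk, 0.2 mg/ml BSA, 0.5% salmon testes DNA and 0.03% Triton X-100, and protein was detected with Alexa488 anti-GST antibody and a 488 nm scan. Binding intensity is the highest Masliner-normalised natural-log median intensity across replicate spots of either probe orientation.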

Sequence | gcPBM binding intensity (ln)
TATTATTTTATGAGACATAAAAAAAAAAAAAAAAAA [CACACA_negctrl_site1534] | 8.08 ± 0.67
TCTTTATATATATATATATGTGTGAATGTTAAGTAT [XGTACX_negctrl_site135] | 8.21 ± 0.54
ATTTTTTTTTTTTCCTTACACACATATTTCATTTTA [CACACA_site748] | 7.96 ± 0.57
ATATATATATATATAGTGCATAATGTTTTAATAGAT | 11 ± 0.33
AAATTGTCTGCATATAGTACATAAATATATTAATAT [XGTACX_site4557] | 7.88 ± 0.49
ATATATAAAATATATTGTACATTAACATATATATTT [XGTACX_site2055] | 7.54 ± 0.47
GTAATATTATATAGTTGTACTTTTTTTTTATTATAT [XGTACX_site483] | 8.15 ± 0.32
ATATATAAATAAATAGTGCATTTTAATATTTAACGT | 10 ± 0.18
AAACTTGACGGACACACACACACATATATAAAAAAA [CACACA_site4577] | 8.25 ± 0.41
AGTAAAAGAAAGCACACACACATGTATATATGTATG [CACACA_site3858] | 8 ± 0.3
CAATATAAAAAACACACGCACACAAAAAAAAAAAAA [CACACA_site3521] | 8.07 ± 0.7
TTTAAATATTTTAACACACTCATATTTAGGTTACAA [CACACA_site5685] | 7.82 ± 0.59
TCCATATATATTATGTGTACATATTATATATATAAA [XGTACX_site7525] | 7.83 ± 0.13
TTTACATATTTATATACACACTTTTGCGTGTCTGGT [CACACA_site4750] | 7.7 ± 0.51
TAATCCATAAGAAGCACACACATATAAATATATTTT [CACACA_site6774] | 7.85 ± 0.37
AGTGTGTGTGCGTATAGTACATATACATATATACAC [XGTACX_site6882] | 8.35 ± 0.42
ATAATACAAAATACATGTACAAATATTTTTCATATT [XGTACX_site1721] | 7.83 ± 0.33
TAGTACACACAAAATACATGCGGGGTTTAATATTTA [TGCATGCA_site576] | 7.87 ± 0.45
AATTCTTTCATATATTGTACGTATTCCCATAAAATA [XGTACX_site5923] | 8.28 ± 0.53
GTTCTTTCAAGTTATACACACCAAAAAAAAAAAAAA [CACACA_site7435] | 8.27 ± 0.29
AATATCATCAAACGCACACATACATAAATATATTAT [CACACA_site2174] | 8.61 ± 0.23
AACGGGGCCAAGAAATATAAATAATCAAAACAAAAA [XGTACX_negctrl_site320] | 7.97 ± 0.42

Sequence | gcPBM binding intensity (ln)
TGTGCACGCATATACACACACAAATACAATGATAAA [CACACA_site6656] | 8.92 ± 0.11
TTTCTTTATTTTTTTTTTTTTTTTTTTCCTTTTTTT [TGCATGCA_negctrl_site231] | 7.45 ± 0.46
TGTTATATTTGTGCGTGTACACATTTGAAAAAATAT [XGTACX_site3796] | 8.59 ± 0.35
TAAATAATAATAAAATGTACATTATATATGTATATG [XGTACX_site8672] | 7.66 ± 0.41
TTTTTTTTTTTTTTCTGTACTGATACTTATAGAGTT [XGTACX_site4736] | 7.94 ± 0.51
TTTTTTCTTTTTATAACACACAGGTGAAAAATAATA [CACACA_site1850] | 7.92 ± 0.38
TCCTGTTGAGAATGGCGTACATATAAATATTATATA [XGTACX_site1841] | 7.88 ± 0.15
TTTCCTCATTTTATCATACACACTTGTTTATATGTG [CACACA_site8202] | 7.81 ± 0.57
AAATAATAAATATATCGTACAAATATCATATATAAA [XGTACX_site2771] | 7.43 ± 0.38
CAGGTTCTTATATAGTGTACTATAGACATTCAATTG [XGTACX_site7239] | 7.85 ± 0.48
TATTACTTTATATATACACACATATAACATAAATGC [CACACA_site3948] | 7.83 ± 0.49
TCTTGTTATAATAATCAATATATGGGTATACTTATG [CACACA_negctrl_site1618] | 7.61 ± 0.54
AAAAGGATTTTTTATACACACACTAACTAATGTATA [CACACA_site2356] | 7.73 ± 0.61
AAAAAAATAAATAAGACACACACAAAAAAAAAAAAA [CACACA_site8404] | 8 ± 0.83
ACCCATATTCTTTTTACACACTTGAATAAAAAATAT [CACACA_site4797] | 8.2 ± 0.4
GAGATATAAAAGTGTACACATATTGTTATCCATATT [CACACA_site5441] | 8.02 ± 0.36
AATAAAAAATAAAAAAGTACATGATGAAAAGGTTTA [XGTACX_site7615] | 8.04 ± 0.5
TCCCTGATGTTATTTAATATACCATAAAAAAAAAAA [CACACA_negctrl_site1472] | 7.91 ± 0.61
ATCTCAAATATAATAAATTATTAGGTATATATATAT [CACACA_negctrl_site1828] | 9.11 ± 0.24
TATATATATATATATACATGCATACAATTTTATGAG [TGCATGCA_site466] | 9.54 ± 0.67
CACACTTTATAATGTTGTACGATACATTATACCAAA [XGTACX_site941] | 7.82 ± 0.43
TTTTATTCATCATATTGTACATTCTTGTATTTATAG [XGTACX_site8534] | 7.83 ± 0.4

Sequence | gcPBM binding intensity (ln)
ATATACTTACATATTACACACAATATTTTTAAATGG [CACACA_site5916] | 7.74 ± 0.54
TATTTATAATTAAATACACACATATATTATAGATTT [CACACA_site6435] | 7.54 ± 0.47
TTGTATATACTATACACACACATACATACATACATA [CACACA_site814] | 8.03 ± 0.76
CTTTTGCCCAAAAAGGTACACACCACAAAGTACATA [CACACA_site8169] | 8.15 ± 0.52
CCAAACAAAAAAAAAAGTACATAAAACACCTATTTG [XGTACX_site5645] | 7.83 ± 0.54
ATAATTAGGGTGTATTTCATTTCATTTCATTTTATT [CACACA_negctrl_site1418] | 7.87 ± 0.6
AATATATAAATATATACACACAAAAACATATATATA [CACACA_site1318] | 7.87 ± 0.69
TATATACAAATATGTACACACATTACAGATGTACAT [CACACA_site6586] | 7.87 ± 0.26
TAGAAAAAATAAAATAGTACACATCCAAAAAAAAAA [XGTACX_site7829] | 7.96 ± 0.56
GATATAAACGTATATGTACATATATATATATATATA [GTGCAC_negctrl_site186] | 9.62 ± 0.49
ATCATGGAAAAAACAAATGGGCTACATTACCTTTTG [GTGCAC_negctrl_site487] | 7.43 ± 0.73
TTGGAGTTCATATGTGGTACACATTTAAATATATTT [XGTACX_site5582] | 7.8 ± 0.42
ATAATAAATGTCTTCAATGAAGTGGAAATGCTGTTA [TGCATGCA_negctrl_site238] | 7.76 ± 0.58
ATATATACATAGAATTGTACATAATTTATGTTCATT [XGTACX_site7426] | 7.66 ± 0.45
CAAACAAATTGTGAAACACACATATATATATATATA [CACACA_site2001] | 9.54 ± 0.38
AACGTATTATTTATCTGTACAAAATAATAACGTATT [XGTACX_site813] | 7.62 ± 0.52
TAAATAAAAATACAGTGTACTTTTTTCTATTTAAAA [XGTACX_site3288] | 7.62 ± 0.19
ATCCAAATTAATAATAGTACTTTTAAGTCCTATGTA [XGTACX_site2452] | 7.32 ± 0.45
TTTTGTTTTTTCAATGTGCACTTAGGATGTTTTTAT [GTGCAC_site9565] | 10.26 ± 0.014
ATTAATATGAATAAATGTACAAATGAATGATTACAT [XGTACX_site6044] | 7.61 ± 0.44
TAATATAATATATAGGTGCAATATTAACAAAAATTT | 11 ± 0.44
ATAATGTGTTAGGCGTGTACACAATTGTATGGTTTA [XGTACX_site2377] | 8.21 ± 0.4

Sequence | gcPBM binding intensity (ln)
AAATAAAATCATAATGTGCGCATATAAATTTGTAGG [GTGCAC_site9662] | 8.51 ± 0.37
AAGGTAGATATATTTAGTACGTAATTTTTTTTTTTT [XGTACX_site7288] | 7.62 ± 0.23
ATATATATATATGAAAGTACACATCTATTTTTTCTT [XGTACX_site6059] | 9.29 ± 0.18
TAAATATTATTTATATGTACTGATATATTAAATAAA [XGTACX_site3446] | 7.36 ± 0.28
AATTAATATTTAAATTGTACATGAACATTTTAATGT [XGTACX_site462] | 7.52 ± 0.48
AAAATAAAATTTACTTGTACTAAAGGGATACGCGCA [XGTACX_site1453] | 7.46 ± 0.49
GTCACAAAATAAATTAAACACACAACATCATATATG [CACACA_site8182] | 7.83 ± 0.59
AATATAAATTTATATTGTACATATTTTATTATATGT [XGTACX_site905] | 7.68 ± 0.32
GTGTATCAATATGTAGGTACGTAAATATAGATAATA [XGTACX_site5526] | 7.96 ± 0.54
AAAAAAAAAAACAGTTGTACATTTATTTATATATTA [XGTACX_site217] | 7.49 ± 0.18
AAAATAAGGACTGTTGTGCACTGGATTTGTGGTTAC [GTGCAC_site9830] | 10.64 ± 0.099
TAAGTAAAAAATTAAAAAGATTACAGGGGGGGAAGG [XGTACX_negctrl_site491] | 9.54 ± 0.12
ATTTTAACGAATATATGTACATAAAAAAAAAAAAGA [XGTACX_site8750] | 8.23 ± 0.28
GACATAAGATAATTACACATTGTTTCCTCAATAATA [CACACA_negctrl_site1616] | 7.76 ± 0.62
ACATATCTACACAGTGGTACTTCCATTAATATATAC [XGTACX_site3827] | 8.18 ± 0.62
AAAAGGGATAAATGTGCGCACATGTTATATATATAT [GTGCAC_site9534] | 9.68 ± 0.18
AACAATGTTGTACATACACACACACTAATAAAAAAT [CACACA_site8758] | 8.15 ± 0.42
TCATAAATTAAACAAACACACACGTTCTTTTATTTA [CACACA_site713] | 7.58 ± 0.64
ATTTATTCAAATGGTTGTACTACAAATAAACATTAT [XGTACX_site3378] | 8.1 ± 0.42
AATACATACAGACACACACACACATATAAATAAATA [CACACA_site7642] | 8.07 ± 0.27
GCTCATTGAAGTTATACACACCAAATATGTAAATAT [CACACA_site7217] | 8 ± 0.53
TCCTTTTCTTAATTTAAAAAATATAAAAAAAACGAA [CACACA_negctrl_site1821] | 7.61 ± 0.27
